Variants at the background level are over-represented here.
B1: TPR 5TU (parent)
chain: GGAUCUUCUCGAUCUAACAAAAAAGACAAAUCUGCCACAAAGCUUGAGAGCAUCUUCGGAUGCAGAGGCGGCAGCCUUCGGUGGCGCGAUAGCGCCAACGUUCUCAACUAUGACACGCAAAACGCGUGCUCCGUUGAAUGGAGUUUAUCAUG

Variants of: B1
Experiment: polymerase ribozyme fitness, log enrichment relative to wild type (log ratio); higher = more active; in vitro selection for triplet polymerase activity
Outline: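 To select mutant libraries of each subunit of a heterodimeric triplet polymerase ribozyme, built by PCR and transcribed, each was annealed with a biotinylated primer, partner subunit and triplets, then incubated frozen at −7 °C. Extended constructs were gel-excised, captured on streptavidin beads and amplified by RT-PCR, in one round carried out in triplicate. Illumina sequencing of input and output libraries kept genotypes with ≥10 input reads and ≥1 read per output. Fitness is the base-2 logarithm of genotype enrichment relative to wild-type enrichment, from inverse-variance-weighted replicate averages.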

Polymerase ribozyme fitness (log ratio), ≤ -4.2:
A22G C69A G86A C87A C103U A106U G128A U130G C131A A138U
A21U A30C G84C C108A G140U
A22U U44C C75U C85G A97C
A22U G42U G59C G92A A106U G136A U151G
A22U A52G A73C C79G U82A G84C C96G A107C
A21G A66C C96A A97G C103A C125A U144A
A24C U55A G88C C108U U148G
A24C A37G C43U U130A
A22C G50C C54A G62A G100A C105G A119C G140U
A21U U56A G88A C99G G128C
A23U G46A G59C C99G U148G
A22C A23U A73G U90A C99U
A21G A49U C76U U82A C116G
A23C U78A C85A U151A G152U
A24G A47G C54U A60C G74U C108G
A24G A49G G59C G83U C85U U151A
A21U C32A C35G G50U C96A C116U C118U A142G
A23G G74C C96A C99U C118A G126C G133U A137G
A22C A24C G42C A52U U53A A121C
A22C G58C G83A C118U G126C G140A G141A
A22U U45G G48U C85U A142U
A22U U33G G34U G81C A120G U134C
A21U A91C C116G C129G
A22U A39U A40U C51U C87U A122U
A22G A52U A66U
A23C G84U C93G A98U A122G U144G
A22C C32U C51A C75A
A21U C35G C63A G84U C116A A122G G143C U146A
A22C A24C
A22C C54U U56A A66U C85A G152C
A21U A26G A52C C54U G67C C93A
A23C C63G C103G A119U
A23G G25C A37C A39C A41C C87A A115G C123G A138U G140U
A23C A73C C96U G141U
A23G C79A C87A G117C G140A
A23C C87G U145A
A23G C43U G84A G141U
A24C G46C G58C A60G C87A U146G
A21U A97U C103A A113U U134C
A23G A52C C85A A107U C108U U145G U151C
A23U G25A G46U U53A C69A G86C A91U U127G U144A
A21U A49G C69A G80C G83A U146A
A21U C85U G94C C96A C105G
A23U C87G G100A A107G A147C
A22U C35U G92C A107U A115G
A22U G62A U82G C93G C108A G126C
A22C G50A C87A C105G
A21U A26C A60U U104A
A21U G58C G81A C85A G92A A106U
A23U C35U A40C C75A U139G
A21U A29U A39U U146A
A23G A28U C36U U77C C87A G141C
A22C A26C A30G G88U
A23G G25A C54U A64C C75A A97G C116A
A24C G81A C93G A121C G133U
A22U G50U G81C A91U C116U
A21U C54U C72G A91G G94A G128U G152A
A22U G59A G74C G83U G84A
A23C A64C A73U G124U
A21G A49C
A22C A28U G42C G74U C96A C129A A137C G141A
A22G A30G C75U G80U C93A C103G
A21U A52G C72A G83U
A23U A26G A41G G50U U53A C96A
A24C C51U A60G C99A
A21U U31G A52G C85U U127G G128U U130A U148A
A23G U31C G42A U56A G62A C103U A121G
A22G C54U A91U G152A
A22U G50U G86U A115C U151C G152C
A22C A23U U109C
A24C A29U G50U A52U U53A U55A G88U G141A
A22C U33G U146A
A21U A52C C54U C93U A107G U148C
A23U C38U G48C A89U C103G C108A
A22C A37C G42C C79U C87G G117U A150C
A24G A47G G83C U109A C116A C123G
A21U A52C G71U G94A C105A
A21G A30G G68A A110C U135C
A24C C69G
A22G G34C G80C U82A C118U A147U
A23G A37U C57A C79U G86A A107G U111C C132A G152C
A23U U45C U61G U82C A107G A115G U146G
A24C C27G A52U A89C
A22U A37G A47C U55C G58U C69U C76G G86U A91G G100U
A23C C54A U55A A91G A106G
A23U U45A G48A G50A C57G C87A A147G A150G
A23U G25U A47C U55G G67A A73U A91U C95A C105U U146A
A24G A47G C85U C95G A121U G140C
A22G U78A A137U
A22C A24G A28C A49U C85G
A23U A52U C76G G83C U104G
A23C A47G C69U
A21C U61A C75U C93U G140A
A24C A41C C57U C85G G117A C149G
A24C A30U C72U C76U C96U G136A A138U
A22C G34U C85G C99U A106G G128C U130C A138C
A24C A52G G86A C132A
A23U G25C C35U G59C G74A A113G
A24C A138U
A22U A26G C57A A66G G84A C103U
A22U A49G G92A
A24G A37U A41U U77G C96U C105G
A22U A23U G25A C38A G86A
A22C A40G C57A C76U C99U C105U C131A G133C
A23C A52G G71U C85U A106C
A23C C79G C85U G94C C95U U104A U130G U145C
A24C C27A C51U G81A C87U U90A
A22C U44G A52G U55A C96U
A22C U33A A60U C149G
A23U G84A C96U A106G C108G A137U
A22U A40C G58U C96G G133U
A23G G46A C103U A121U G133A G140U
A24C G50U C99U C118A U144A
A21G C27U A37U G65U A97U
A22U U61G A64C G84C U145G
A22C G25U A40C C75G C79G
A23G U45G G84A U111A
A24C C116A U148A
A23U C54U A66G U90C G94C U102G C103U
A22G C43U U44C C54A A73U C87U A147C A150G
A24C G46U U109G C129A C149U
A22C U44A U61A C96G G141C
A22C C79G A110C
A24C C63A G81C G92U A98U A115G
A24C A47C C51A G83A C93U G124C G140U
A22U A49C C87G A137U
A21G A29C C85G A121G A138G U151C
A21U A60C C76U C85U U102G C118U U139G
A22C U61A A91G U148C
A22G G81C G88A A91G C103A A110G C125G
A23G A52U U56A C57G C79A G86U
A22C U33G G67A C95G C129G
A21U G88U C105U
A21U U44A G71U A120U G141U U151G
A21U C43U G48C A52C C96U U135A G141U
A22C A60U U61G G74C C85G U127C A150C
A21G G58A A73G G84A C129A G141A
A22C A29U U56G A66U U77C C114A U134C
A21U U53A G65A U77A G88U G92C
A23G U31C G65C C85U G94A A115C U146A
A22U U31A C57A A60G C103G U111G A122U U151A
A23C U148C
A23C G46C G84A
A21G C35A A52C G58C C95U
A23C U55A C69U G136A
A24C A91G C118U A121G A137G A147C
A22U G58C C105U A107C
A23C A28U A30G G58A C85A U144A
A22U A40U G70U C93U G100U
A23U G25U A41C C54U C57G G59A G62A C93U A147U
A21U G46A G84C C132U
A21G C27U C57U A73U A98U U109C
A22C U31C A47G C103A A110G C118G
A22G A28U A91C G141A
A22C C57A G62U C93U A97U A98G
A22U A24C G42A A49C C76A G83U
A21U A49C C87A A137G
A23G G126U A142C
A23C C57U C95G G126U G141C
A23U C51U C87G C125A U144A
A24C C27U A52G
A21U C35G G62U G84U C95G A106G U139G
A22U C43U G50C G80A A110G U144C U148G
A21G A47U U82A C96U C99U A110G G128A
A23U G59C G62C G70U
A23U A73U U77G C95U G136U G140A
A23G A52G C75A G88A G141A
